# Assay results published in PubChem BioAssay AID488969 (Vanderbilt High Throughput Screening Facility, 2010).
# Over roughly 110,000 compounds, “z-score” has its median near -0.1; the highest 2% begin near 2. The list shows a part of the results. The source made the active and inactive calls.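 Rule for the calls: active = z-score in the third read window above 3 or below -3; inactive = the rest.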
# Biological target: Metabotropic glutamate receptor 8 (Rattus norvegicus) (UniProt P70579)
# Assay: mGluR8 Gi/Go-coupled signaling modulation – cell-based, rat, thallium flux, HTS, primary screen (AID 488969)
# Settings: HEK293 rat mGluR8, GIRK (G protein-gated inwardly rectifying potassium channel) thallium flux, FluoZin2; at 10 µM; stronger effect = higher value; submaximal glutamate (EC20) added with thallium
# Sequence of UniProt P70579 (P70579 whole entry, looked up): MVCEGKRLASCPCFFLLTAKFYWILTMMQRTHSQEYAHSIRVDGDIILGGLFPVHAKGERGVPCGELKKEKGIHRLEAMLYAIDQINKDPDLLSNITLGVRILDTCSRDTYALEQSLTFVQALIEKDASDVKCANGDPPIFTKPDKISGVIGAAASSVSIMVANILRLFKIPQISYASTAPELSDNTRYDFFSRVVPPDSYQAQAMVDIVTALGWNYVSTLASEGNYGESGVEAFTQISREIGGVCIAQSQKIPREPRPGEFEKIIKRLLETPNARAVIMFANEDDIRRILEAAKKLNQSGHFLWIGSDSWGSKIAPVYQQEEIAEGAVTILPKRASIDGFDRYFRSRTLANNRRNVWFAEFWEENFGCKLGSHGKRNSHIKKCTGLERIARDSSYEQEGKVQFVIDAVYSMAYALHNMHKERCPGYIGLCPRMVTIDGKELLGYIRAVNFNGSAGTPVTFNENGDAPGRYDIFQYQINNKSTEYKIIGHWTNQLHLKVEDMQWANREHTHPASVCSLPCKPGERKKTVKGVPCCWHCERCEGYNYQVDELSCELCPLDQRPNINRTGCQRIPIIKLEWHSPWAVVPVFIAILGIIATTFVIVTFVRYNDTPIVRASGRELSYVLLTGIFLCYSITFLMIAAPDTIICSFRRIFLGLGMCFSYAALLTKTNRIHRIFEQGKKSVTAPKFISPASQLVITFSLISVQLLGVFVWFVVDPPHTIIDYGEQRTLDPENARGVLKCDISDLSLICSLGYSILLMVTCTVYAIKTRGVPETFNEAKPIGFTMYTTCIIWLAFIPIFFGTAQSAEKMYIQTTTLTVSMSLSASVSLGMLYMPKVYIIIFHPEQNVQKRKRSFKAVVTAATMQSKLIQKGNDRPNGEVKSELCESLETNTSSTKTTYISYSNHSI
row,Compound,z-score
1,Cc1ccc(-c2csc(NC(=O)c3cccs3)n2)cc1,-0.149
2,CC(C)c1ccc(CNc2cc(N3CCCC3)ccc2[N+](=O)[O-])cc1,-0.15
3,CC1Cc2ccccc2N1S(=O)(=O)c1cccc2nsnc12 (stereo unspecified),-0.775
4,COC(=O)c1ccc(OCC(=O)c2ccccc2)cc1,0.276
5,Cc1ccc2nc(SCC(=O)Nc3cccc([N+](=O)[O-])c3)[nH]c2c1,-0.186
6,Cc1ccc(/C=C/C(=O)NCCCN2CCN(CCCNC(=O)/C=C/c3ccc(C)cc3)CC2)cc1,-0.22
7,Cc1cc(S(=O)(=O)Nc2ccc3ccccc3c2)c(C)s1,0.00286
8,O=C(O)CCSc1nc(C(F)(F)F)cc(=O)n1-c1ccccc1,-0.505
9,COC(=O)c1sc2nc(-c3ccccc3)nc(N3CCN(C)CC3)c2c1C,0.19
10,C/C(CC(=O)NCC(C)C)=N\NC(=O)COc1cc(C)c(Br)cc1Br,active: 5.36
11,Cc1cc(NC(=O)c2c([N+](=O)[O-])c(C)nn2C)no1,-0.146
12,COc1cccc(N(CC(=O)NCCSc2ccccc2)S(C)(=O)=O)c1,0.502
13,COCC(=O)Nc1nnc(Cc2ccc(OC)cc2)s1,0.0794
14,Cn1c(N)c(C(=O)COC(=O)CCc2c[nH]c3ccccc23)c(=O)n(C)c1=O,-0.412
15,N/C(=N\OC(=O)Cc1ccccc1[N+](=O)[O-])c1ccncc1,0.641
16,O=C(Oc1ccc2c(c1)OCO2)c1ccc(Br)c(S(=O)(=O)N2CCOCC2)c1,0.026
17,C1=C(c2ccccc2)CCN(c2nc3ccccc3n3cnnc23)C1,0.0688
18,N#C/C(=C\c1ccco1)Sc1nc2ccccc2s1,-0.232
19,N=c1ccn(Cc2ccccc2Cl)cc1,-0.281

row,Compound,z-score
1,CC(C)(C)NC(=O)c1cc(F)c(F)cc1Cl,-0.03
2,Cn1c(SCc2ccccc2)nnc1C1CCCNC1 (stereo unspecified),0.254
3,CCOC(=O)CN(Cc1sccc1C)C(=O)Nc1ccc(OCC)cc1,-0.0739
4,O=c1oc2ccccc2c(N2CCCCC2)c1CN1CCCCC1,-0.762
5,COc1cccc(C2=NO[C@@H]3C(=O)N(c4ccc5c(c4)OCCO5)C(=O)[C@H]23)c1OC,-0.153
6,Cc1ccc(CN2CN(S(=O)(=O)c3cccs3)c3nc4ccccc4nc32)cc1,0.149
7,Cc1ccc(/C=N/NC(=O)CN(Cc2ccccc2)S(=O)(=O)c2ccc3c(c2)OCCO3)cc1,-0.0995
8,NS(=O)(=O)c1ccc(CCNC(=O)[C@@H]2CCCN2S(=O)(=O)c2ccccc2F)cc1,0.119
9,CC1=NNC(=O)/C1=C\c1cn(-c2ccccc2)nc1-c1ccc(Cl)cc1,-0.29
10,O=C(Nn1c(SCc2ccccc2F)nc2ccsc2c1=O)c1ccccc1,-0.0125
11,Cc1oc2ccc(OCc3ccccc3F)cc2c1C(=O)O,-0.186
12,Cc1ccccc1NC(=O)c1cc(C(=O)c2cc(Cl)ccc2O)cn(-c2ccccc2C)c1=O,-0.378
13,CCCCCCC1CC(CSC(=N)N)OC1=O (stereo unspecified),0.116
14,Cc1c(S(=O)(=O)N2CCOCC2)c(=O)n(C)c(=O)n1C,0.0852
15,CC(=O)c1cc2c(cc1NC(=O)CSc1nnc(C)s1)OCO2,-0.677
16,O=C(OCC(=O)c1cccs1)c1cccc(C(=O)OCC(=O)c2cccs2)n1,-0.78
17,Cc1cc(N2CCOCC2)n2nc(C)c(-c3ccccc3)c2n1,active: 4.01
18,COc1ccc(C(=O)/C=C(\C)Nc2ccc(NC(C)=O)cc2)cc1,-0.108
19,CCOc1cc(S(=O)(=O)NCc2ccccn2)c(C)cc1C,0.164

row,Compound,z-score
1,N#Cc1ccc(CSc2nnc(-c3cccs3)n2-c2ccccc2)cc1,-1.82
2,CC1=CC(C)(C)N2C(=O)C3(C(C#N)=C(N)OC4=C3C(=O)CC(C)(C)C4)c3cc(C)cc1c32 (stereo unspecified),0.474
3,CC(C)CNC(=S)N(Cc1ccco1)Cc1cc2cc3c(cc2[nH]c1=O)OCCO3,-0.396
4,CCOc1ccc(N=CC2=C(O)CC(c3ccco3)CC2=O)cc1 (stereo unspecified),-0.187
5,CC12CCC(C(=O)Nc3cc(Cl)ccc3Cl)(C/C1=N\O)C2(C)C (stereo unspecified),-0.269
6,COc1ccc(/C(C)=N/NC(=O)CCC(=O)Nc2ccc(Cl)cc2Cl)c(OC)c1,-0.503
7,Cc1ccc(-c2csc(N/N=C/C=C/c3ccccc3)n2)cc1,-0.0496
8,O=C(/C=C/c1ccc2c(c1)OCO2)Nc1nc(-c2ccc(F)cc2F)cs1,-0.00891
9,CN(C)C(=O)CSc1cccc2cccnc12,active: 7
10,O=C(Cc1nc(-c2ccc(Br)s2)cs1)NCCN1CCOCC1,-0.0716
11,COc1ccc(S(=O)(=O)N[C@@H](Cc2ccc(Cl)cc2)C(=O)N2CC[C@@]3(O)CCCC[C@H]3C2)cc1,-0.0964
12,COC(=O)c1ccc(CSc2nc3ccc(Cl)cc3[nH]2)o1,-0.626
13,C=CCN1C(=O)CSC1=Nc1cccc(O)c1,-0.17
14,CCOC(=O)CCCNC(=O)c1cncc(O)c1,-0.275
15,COc1ccc(C2C(C(=O)c3sc(C)nc3C)=C(O)C(=O)N2CCCn2ccnc2)cc1OC (stereo unspecified),-0.122
16,COc1ccc(Cc2nc(-c3ccc(Br)o3)no2)cc1OC,-0.0992
17,COc1ccc(CN(CC(=O)NC2CCCC2)C(=O)CCC(=O)Nc2cc(C)on2)cc1,-0.363
18,C(=N\c1nc2ccccc2n1CCN1CCOCC1)/c1cccs1,-0.0657
